Laboratory results reported in paper PMC4336329 (PLoS ONE, 2015).
The campaign covered roughly 310,000 compounds. About 2,200 (0.71%) showed an effect of 50% or more. Effects have a minus sign here. Some of the results follow.

target: human ether-à-go-go-related gene (hERG) potassium channel (human, UniProt Q12809); assay: primary screen, population patch clamp on CHO cells stably expressing hERG
Sequence (Q12809 whole entry, looked up): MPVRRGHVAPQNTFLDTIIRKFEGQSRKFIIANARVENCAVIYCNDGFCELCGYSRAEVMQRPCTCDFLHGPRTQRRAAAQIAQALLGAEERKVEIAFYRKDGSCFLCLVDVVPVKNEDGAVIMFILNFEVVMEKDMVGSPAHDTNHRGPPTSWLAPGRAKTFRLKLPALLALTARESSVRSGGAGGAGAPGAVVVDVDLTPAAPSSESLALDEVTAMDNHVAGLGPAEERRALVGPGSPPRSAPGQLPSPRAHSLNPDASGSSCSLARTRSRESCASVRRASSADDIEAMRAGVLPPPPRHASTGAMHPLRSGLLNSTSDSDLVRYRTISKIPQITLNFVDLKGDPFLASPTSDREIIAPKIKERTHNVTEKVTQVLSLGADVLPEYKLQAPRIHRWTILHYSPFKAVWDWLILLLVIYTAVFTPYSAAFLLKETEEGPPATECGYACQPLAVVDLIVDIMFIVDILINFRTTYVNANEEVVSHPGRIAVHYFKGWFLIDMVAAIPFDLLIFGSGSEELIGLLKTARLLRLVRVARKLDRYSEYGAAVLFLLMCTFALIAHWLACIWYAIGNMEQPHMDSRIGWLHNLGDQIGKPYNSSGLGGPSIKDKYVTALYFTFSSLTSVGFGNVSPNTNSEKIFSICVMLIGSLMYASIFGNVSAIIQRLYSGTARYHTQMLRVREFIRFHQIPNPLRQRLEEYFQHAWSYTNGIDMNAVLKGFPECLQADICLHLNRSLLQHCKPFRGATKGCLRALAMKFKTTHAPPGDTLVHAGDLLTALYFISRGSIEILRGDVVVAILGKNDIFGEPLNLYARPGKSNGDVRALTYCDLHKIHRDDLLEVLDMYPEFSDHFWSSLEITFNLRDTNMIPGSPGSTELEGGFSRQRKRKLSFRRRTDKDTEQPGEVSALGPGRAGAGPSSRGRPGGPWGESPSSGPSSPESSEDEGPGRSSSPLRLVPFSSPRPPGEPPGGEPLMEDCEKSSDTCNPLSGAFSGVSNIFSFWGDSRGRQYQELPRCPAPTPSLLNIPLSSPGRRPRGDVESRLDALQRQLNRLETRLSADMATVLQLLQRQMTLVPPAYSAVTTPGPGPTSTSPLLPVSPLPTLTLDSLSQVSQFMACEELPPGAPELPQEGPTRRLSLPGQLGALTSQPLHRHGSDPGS

Row | SMILES | hERG current change (%, negative = inhibition) at 1uM
1 | CSc1nc2nccc(-c3ccc(Cl)cc3)n2n1 | 7.08%
2 | O=c1[nH]c(-c2cccnc2)nc2ccccc12 | 6.58%
3 | COc1ccc(/C=N/NC(=O)C(C)N(c2ccc(OC)cc2)S(C)(=O)=O)cc1 (stereo not shown) | 6.17%
4 | CCCn1c(SCC(=O)NC2CCCC2)nnc1-c1cccnc1 | 13.7%
5 | Nc1oc2ccccc2c(=O)c1-c1ccc2c(c1)OCO2 | 5.96%
6 | C/C(=N\Nc1ccc([N+](=O)[O-])cc1)c1ccc(C#N)cc1 | 13.2%
7 | CC(=O)Nc1ccc(NC(=O)CCCc2ccccc2)cc1 | 10.7%
8 | C=C(C)CNC(=S)N/N=C/c1ccco1 | 9.15%
9 | COc1cccc2cc(C(=O)NC3CC(C)(C)NC(C)(C)C3)c(=O)oc12 | 10.8%
10 | COc1ccccc1N1CCN(CC(=O)c2ccc3ccn(C(C)=O)c3c2)CC1 | 6.61%
11 | CC(=O)Nc1ccc(NS(=O)(=O)C(F)(F)F)cc1 | 21.2%
12 | COC(=O)c1ccc(OC(=O)c2cccnc2SC)cc1 | 18.3%
13 | CCCN(CC(=O)Nc1ccccc1C)C(=O)c1ccc(COc2ccccc2)cc1 | 14.9%
14 | Cc1ccc(NC(=S)NC(=O)c2c(-c3ccccc3Cl)noc2C)cc1 | -9.22%
15 | CCOc1ccc(NC(=O)c2cccc(OC(=S)N3CCOCC3)c2)cc1 | 9.03%
16 | O=C(O)c1ccccc1C(=O)Nc1ccc(-n2ccc(C(F)(F)F)n2)cc1 | 12.4%
17 | CCOC(=O)c1c(C)[nH]c(C(=O)OCC(=O)Nc2cc(Cl)ccc2OC)c1C | -14.6%
18 | O=C(O)c1ccccc1C(=O)NCc1ccccc1 | 5.29%
19 | COc1cc(/C=N/NC(=O)C(=O)NCC2CCCO2)ccc1O (stereo not shown) | 14.4%
20 | O=C(CN(C(=O)Cn1nnc(-c2ccccc2F)n1)c1cnc2ccccc2c1)NCC1CCCO1 (stereo not shown) | 4.98%
21 | CN(CCc1cnn(C)c1)C(=O)C1CCC(=O)N(CC2CCCCC2)C1 (stereo not shown) | 20.3%
22 | COC(=O)[C@H]1C[C@H]1[C@@H](NC(=O)c1cccnc1)c1ccccc1 | 11.4%
23 | C=CCOc1ccc(C2C3=C(CCCC3=O)N(CC(=O)O)C3=C2C(=O)CCC3)cc1OCC | 6.04%

Row | SMILES | hERG current change (%, negative = inhibition) at 1uM
24 | CCN1CCN(C(=O)c2cccc(OC3CCN(S(=O)(=O)N(C)C)CC3)c2)CC1 | 15.2%
25 | Fc1ccccc1COc1ccc(/C=N/n2cnnc2)cc1 | 12.7%
26 | CCCC1C(C#N)=C(N)Oc2n[nH]c(C(C)(C)C)c21 (stereo not shown) | 6.09%
27 | COc1ccc(C2C(C#N)=C(N)Oc3n[nH]c(-c4ccccn4)c32)c(OC)c1OC (stereo not shown) | 16.3%
28 | OC(C#Cc1ccccn1)c1cccs1 (stereo not shown) | 8.8%
29 | COc1ccc(-c2cc(CNC(=O)CCl)on2)cc1 | 13%
30 | COc1ccc(OC)c(NC(=O)Nc2ccccc2C)c1 | 13.7%
31 | CC(=O)N/C(=C\c1ccccc1)C(=O)OCC(=O)NC(C)C12CC3CC(CC(C3)C1)C2 (stereo not shown) | 7.75%
32 | Cc1ccc(Cl)cc1NC(=O)CCN1C(=O)C2C3CCC(C3)C2C1=O (stereo not shown) | 7.91%
33 | N#CC[n+]1cc(-c2ccc(Cl)cc2)n2c1CCC2.[Cl-] | 12.2%
34 | O=C(COc1ccc(Cl)cc1Cl)N/N=C/c1ccc[nH]1 | 3.54%
35 | CCCCNS(=O)(=O)c1ccc2nc(SCC(=O)Nc3sccc3C#N)[nH]c2c1 | 7.37%
36 | CCCOc1ccc(OCCSc2nnc(N)s2)cc1 | 13.8%
37 | COc1ccc(/C=N/NC(=O)c2ccc(N(C)S(=O)(=O)c3ccccc3)cc2)cc1 | 10.6%
38 | CN1C(C(=O)N2CCc3ccccc3C2)=CC(c2ccc(F)cc2)=NS1(=O)=O | 9.61%
39 | Nn1c(SCC(=O)Nc2ccccc2F)nc2ccccc2c1=O | 1.58%
40 | CCCc1cc(C(=O)Nc2sc(C)c(CC)c2C#N)no1 | 12.5%
41 | CC(C)C(=O)NC(=S)Nc1ccccc1N1CCN(C(=O)c2ccc(Cl)cc2)CC1 | 0.0723%
42 | O=c1nc(-c2ccccc2Cl)c2cc(F)ccc2[nH]1 | 15.1%
43 | COc1ccccc1CN1CCCC(CN(CCN(C)C)C(=O)C2CCCC2)C1 (stereo not shown) | 9.78%
44 | CCc1nc(NC(=O)Cc2csc(C)n2)sc1C(=O)OC | 9.28%
45 | COC(=O)c1sccc1NC(=O)c1ccc(Cl)s1 | -3.73%
46 | O=C(c1ccccc1)N1CCN(C(=S)NCCc2ccccc2)CC1 | -11.5%
